From PubChem BioAssay AID686979 (National Center for Advancing Translational Sciences (NCATS), 2013)
About 50,000 (12%) of roughly 420,000 compounds were called active. The inconclusive results got no clear call from the source; some entries with a clear call stand among them for comparison. Calls come from the whole dose curve; as a rule, active = well fitted inhibition curve with a large enough effect; inconclusive = small, poorly fitted or top-dose-only effect; inactive = flat fitted curve, though single readings scatter. Potencies of inconclusive entries are left out as doubtful fits. Where a SMILES comes first, the peptide text is derived from it. The star is where a group is joined. PhAc = O=C(Cc1ccccc1)*; OBn = c1ccc(CO*)cc1

Test: qHTS for Inhibitors of human tyrosyl-DNA phosphodiesterase 1 (TDP1): qHTS in cells in presence of CPT; note: nearly all actives have a fitted effect of over 55% in size
Settings: chicken DT40 Tdp1-/-;hTDP1 cells + 20 nM CPT, ATP luminescence, 48 h; activity change, negative = growth inhibition: at 46.2 µM (top of the series)
Summary of the method: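 Cell growth measured by CellTiter-Glo luminescence after a minimum 48 h, 37 C compound exposure with 20 nM CPT in Tdp1-knockout DT40 cells stably expressing hTDP1, seeded 400/well; qHTS titration format.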
% is set by controls: 0 for no effect and ±100 for the full control effect; potency is the fitted concentration of half-maximal effect; tags give direction and shape of the fitted curve.

SMILES	Potency	activity change, negative = growth inhibition
Cc1ccc(NC(=O)c2nc[nH]c2C(=O)NCCN(CCNC(=O)c2[nH]cnc2C(=O)Nc2ccc(C)cc2)CCNC(=O)c2[nH]cnc2C(=O)Nc2ccc(C)cc2)cc1	inconclusive [inhibitor, single point]	–
COc1ccc(CCNC(=O)Nc2nc(C(N)COCc3ccccc3)cs2)cc1OC (stereo not given)	inconclusive [inhibitor, single point]	–
Cc1ccc(C)c(NC(=O)CCc2c(C)nn(-c3ccc(N4CCCC4)nn3)c2C)c1	inconclusive [inhibitor, partial curve, poor fit]	–
Cc1nc(NCc2ccc3nsnc3c2)sc1-c1ccn(C)n1	inconclusive [inhibitor, single point]	–
COC(=O)c1ccc(Cn2c(O)c(N=NC(N)=S)c3ccccc32)o1	inconclusive [inhibitor, single point]	–
COc1ccccc1NC(=O)CSc1nc(=O)n2cc(C)ccc2n1	inactive	–
COC(=O)c1ccccc1NC(=O)c1cc([N+](=O)[O-])nn1Cc1ccccc1	inactive	–
C[C@H](CO)N1C[C@H](C)[C@@H](CN(C)C)Oc2c(NS(=O)(=O)c3ccc(F)cc3)cccc2C1=O	inactive	–
COc1cc(-c2ccc3cc(OC)c(OC)c(OC)c3c2)cc(OC)c1OC	active: 20.6 µM	–
COCCCn1c(SCC(=O)Nc2ccccc2OC)nc2c(sc3ccccc32)c1=O	active: 23.1 µM	–
O=C(c1cccc(F)c1)N1CCN(CC2CC3C=CC2C3)CC1 (stereo not given)	inactive	–
Cc1nc2ccccn2c1C(=O)NNS(=O)(=O)c1ccc(C(C)(C)C)cc1	active: 8.2 µM	–
NC(=O)c1sc2nc(-c3cccs3)ccc2c1N	inconclusive [inhibitor, single point]	–
CCc1ccc(NC(=O)c2ccc3c(=O)n4c(nc3c2)CCCCC4)cc1	inconclusive [inhibitor, single point]	–
COc1ccc(C2C(=O)N(C3CCCCCC3)CC(=O)N2CCc2ccc(OC)c(OC)c2)cc1 (stereo not given)	inconclusive [inhibitor, partial curve]	–
CCOc1ccccc1N=CC1=C(O)CC(c2ccccc2)CC1=O (stereo not given)	inconclusive [inhibitor, single point]	–
CC(c1n[nH]c(=S)n1-c1ccc(F)cc1)N1CCCCC1 (stereo not given)	inactive	–
CCOc1ccc(CCNC(=O)Cn2c(=O)c3cccn3c3cccnc32)cc1	inconclusive [inhibitor, single point]	–
CCOc1ccc(CNC(=O)C2CCN(C(=O)N3CC(C)Oc4ccccc43)CC2)cc1 (stereo not given)	inconclusive [inhibitor, single point]	–
CCOC(=O)C1CCCN(C(=O)Cn2ncn3c(cc4sc(CC)cc43)c2=O)C1 (stereo not given)	active: 20.6 µM	–
CCN(CC)c1ccc(NC(=O)CCc2nnc3ccc(N4CCCCC4)nn23)c(C)c1	inconclusive [inhibitor, single point]	–
COC(=O)c1ccc(NC(=O)CC2C(=O)N(c3ccc(C)cc3)C(=O)N2CC(C)C)cc1 (stereo not given)	–	inconclusive: -38.8% [inhibitor]
Cc1ccccc1-c1ccc2ncnc(NCc3cccnc3)c2c1	inconclusive [inhibitor, partial curve, poor fit]	–
COc1ccc(-c2oc3ncn4nc(COc5ccccc5C)nc4c3c2-c2ccc(OC)cc2)cc1	inactive	–

SMILES	Potency	activity change, negative = growth inhibition
CCCCCC(=O)NNC(=S)NC(=O)c1ccc([N+](=O)[O-])cc1	inactive	–
COc1ccc(-c2csc3ncnc(N4CCN(c5ccccc5)CC4)c23)cc1	inconclusive [inhibitor, single point]	–
CCCCN(C)CCCNC(=O)c1cc(-c2cccnc2)nc2ccccc12	inactive	–
O=C(CNC(=O)Cc1ccccc1)NCC(=O)OCc1ccccc1 (PhAc-Gly-Gly-OBn)	inconclusive [inhibitor, partial curve, poor fit]	–
CCOc1ccc(S(=O)(=O)N(CC)CC)cc1NC(=O)CSCc1c(C)noc1C	inconclusive [inhibitor, partial curve]	–
CCC1=Nc2cc(C(=O)NCc3ccc(C)cc3)ccc2Sc2ccc(C)cc21	active: 7.31 µM	–
CCCn1c(SCC(=O)Nc2nc3ccccc3s2)nc2c1c(=O)n(C)c(=O)n2C	active: 23.1 µM	–
N#CCC(CNc1ncc(C(F)(F)F)cc1Cl)OC(=O)c1cccc([N+](=O)[O-])c1 (stereo not given)	–	inconclusive: -39.4% [inhibitor]
CCc1noc(C)c1C(=O)Nc1nc(-c2ccc(OC)cc2)cs1	inconclusive [inhibitor, single point]	–
COc1ccc(OC)c(NC(=O)CSc2nc(O)cc(=O)n2CC(C)C)c1	inactive	–
O=C(Nc1cccc(Cl)c1)OCCOc1ccccc1	inactive	–
COc1cc(OC)c(NC(=O)Cc2ccc(-n3c(C)nc4cccnc43)cc2)cc1Cl	active: 23.1 µM	–
CCC(C)(C)c1ccc(OCCCC[n+]2ccccc2)c(C(C)(C)CC)c1	active: 0.58 µM	–
Cc1cccc(OCc2nnc(N)s2)c1	inconclusive [inhibitor, single point]	–
CCOC(=O)c1cccc(NC(=O)C2CCCN(S(=O)(=O)c3c(C)nn(C)c3C)C2)c1 (stereo not given)	active: 20.6 µM	–
Cc1ccc(-c2noc(C3CCCN(C(=O)c4cccc([N+](=O)[O-])c4)C3)n2)o1 (stereo not given)	inconclusive [inhibitor, full curve, poor fit]	–
CC(C)c1ccc(-n2cccc2/C=C2/C(=N)N3C=CSC3=NC2=O)cc1	inconclusive [inhibitor, single point]	–
CCC(C)NC(=O)c1[nH]c2cc(C)ccc2c1Sc1ccc(Cl)cc1 (stereo not given)	inconclusive [inhibitor, single point]	–
COc1cccc(/C=N/n2c(SC)nnc2-c2ccccc2)c1OC	inconclusive [inhibitor, single point]	–
COc1ccc(CCNC(=O)CCc2cn(Cc3ccc(C)cc3)c3ccccc23)c(OC)c1OC	inconclusive [inhibitor, single point]	–
Cc1ccc2nc(CSc3nnc(-c4ccco4)n3-c3ccccc3)cc(=O)n2c1	–	inconclusive: -31.1% [inhibitor]
Brc1ccc(-c2nnc3ccc(N4CCN(c5ccccc5)CC4)nn23)cc1	inconclusive [inhibitor, single point]	–
CN(CC(=O)Nc1ccccc1Cl)C(=O)c1ccc(-c2cccc(C(F)(F)F)c2)o1	inconclusive [inhibitor, single point]	–
Clc1cccc(CNc2ccn3nc(-c4cccc(OCc5ccccc5)c4)cc3n2)c1	inconclusive [inhibitor, single point]	–

SMILES	Potency	activity change, negative = growth inhibition
NS(=O)(=O)c1ccc(N/N=C/c2ccc(O)c(O)c2O)c([N+](=O)[O-])c1	inconclusive [inhibitor, single point]	–
CCn1c(=NC(=O)c2cccc(N3C(=O)CCC3=O)c2)sc2c(C)ccc(OC)c21	active: 18.4 µM	–
O=c1[nH]c(COc2ccccc2)nc2ccccc12	active: 20.6 µM	–
Cc1cc2oc(=O)cc(CN3CCc4ccccc43)c2cc1Cl	inconclusive [inhibitor, single point]	–
COc1ccc(-c2nc3c(-c4ccc(Cl)cc4)cnn3cc2C)cc1F	inconclusive [inhibitor, single point]	–
COc1ccc2oc(=O)c(-c3cn4c(n3)sc3cc(F)ccc34)cc2c1	inactive	–
Cc1ccc(C2C3CN(C(C)C)CC=C3C(C#N)=C(N)C2(C#N)C#N)cc1 (stereo not given)	active: 15.8 µM	–
COc1ccc2c(CNCCc3cccs3)c(C(=O)O)n(Cc3ccccc3C)c2c1	active: 8.2 µM	–
Cc1cc2c(cc1C)-n1nnnc1C(N(C)CCc1ccccc1)C(=O)N2 (stereo not given)	active: 23.1 µM	–
CCN(CC)S(=O)(=O)c1ccc(N2CCOCC2)c(NC(=O)C2CSC3(C)CCC(=O)N23)c1 (stereo not given)	inconclusive [inhibitor, single point]	–
Cc1cccn2c(=O)c3cc(C(=O)NC4CCCCC4)sc3nc12	inactive	–
CCNc1nc(OCCNS(=O)(=O)c2cc(C)ccc2C)nc(N(C)C)n1	inconclusive [inhibitor, single point]	–
Cc1ccc(-n2c(C)cc(C(=O)COC(=O)c3ccc[nH]c3=O)c2C)cc1	inactive	–
C/C(CC(=O)Nc1ccc2c(c1)OCCO2)=N\NC(=O)COc1ccc(Cl)c(C)c1	inactive	–
COc1ccc(CCNC(=O)c2ccc(NS(=O)(=O)c3ccc4[nH]c(=O)[nH]c4c3)cc2)cc1	inactive	–
CCCc1cc(C(=O)NC2CCCCC2)no1	inactive	–
CCCCCOc1ccc(CSc2ncn[nH]2)cc1	inconclusive [inhibitor, single point]	–
O=C(O)c1ccccc1N=Cc1c(O)n(-c2nccs2)c(=O)c2ccccc12	inconclusive [inhibitor, partial curve]	–
CC(=O)NC12CC3CC(C1)CC(C(=O)N1CCN(S(=O)(=O)c4ccccc4[N+](=O)[O-])CC1)(C3)C2	inconclusive [inhibitor, single point]	–
Cc1ccc(F)cc1NC(=O)N1CCN(c2ccnc3cc(Cl)ccc23)CC1	inconclusive [inhibitor, single point]	–
CCCS(=O)(=O)NC(=O)C1(C)CCN(C(=O)c2ccc(C(F)(F)F)cc2)C1 (stereo not given)	inactive	–
Cc1csc2ncnc(N3CCN(S(=O)(=O)c4cccc(C(F)(F)F)c4)CC3)c12	active: 9.2 µM	–
